Experimental data taken from the BET-seq Pho4 binding data (Le et al. 2018).
The list shows a part of the results. Values were computed here from the reads of four pooled replicates and scatter widely.

The sequences below were run against T1, Pho4 (S. cerevisiae) (UniProt P07270) (assay: relative binding free energy (BET-seq); higher = weaker binding). Settings: reference: library average.
T1 sequence: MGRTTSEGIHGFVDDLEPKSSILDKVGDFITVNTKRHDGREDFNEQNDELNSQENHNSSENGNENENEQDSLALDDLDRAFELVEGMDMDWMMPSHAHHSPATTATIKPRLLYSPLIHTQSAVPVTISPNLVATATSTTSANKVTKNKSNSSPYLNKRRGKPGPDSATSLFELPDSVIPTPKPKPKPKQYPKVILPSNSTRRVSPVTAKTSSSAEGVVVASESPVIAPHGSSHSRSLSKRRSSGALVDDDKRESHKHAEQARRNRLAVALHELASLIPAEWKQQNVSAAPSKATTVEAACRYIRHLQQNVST

Sequence | relative binding free energy [kcal/mol]
TGAAGCACGTGGATGG | -0.06
AGTTGCACGTGTTAAA | 0.06
CTGGGCACGTGTCAGG | -0.16
TGAAACACGTGGTGAA | 0.22
GGTGTCACGTGGTCTT | -0.03
GGTGCCACGTGGGGCG | -0.3
CACTTCACGTGGTGGT | 0.11
TGTCGCACGTGAATTG | 0.11
TTGATCACGTGGATCG | 0.07
TGATTCACGTGGCTTG | 0.06
TTGTCCACGTGTGAGA | 0.2
AATATCACGTGCTGGG | 0.07
CCGGTCACGTGTTTTG | 0.17
CGATGCACGTGTGTTA | 0.08
ATGGTCACGTGGCTGG | 0.07
GGAGTCACGTGAGGGA | 0.33
TCAGGCACGTGGTAGG | -0.15
TAAAGCACGTGAAGTG | 0.27
TAGGGCACGTGGAAGT | 0.04
TTTGCCACGTGAGATT | 0.27
TAGTGCACGTGATAGT | 0.01
ATTTACACGTGCAATT | 0.18
GTGGACACGTGCTGAG | 0.01

Sequence | relative binding free energy [kcal/mol]
ACCTTCACGTGGGTGG | 0.13
TTTATCACGTGAGTCG | 0.25
TGGTGCACGTGGCCTG | -0.24
TTTTGCACGTGACAGG | 0.11
CGATGCACGTGTGATT | 0.16
TTGAACACGTGTATCT | 0.15
ATAGTCACGTGCTTTT | 0.12
GTTAACACGTGCAGGG | -0.07
AACGTCACGTGGGTGG | -0.1
GTATGCACGTGGGAGA | -0.07
GCGTTCACGTGTGCGT | 0.24
GGGCTCACGTGGAGTT | 0.26
TATAGCACGTGTTGTG | -0.15
CTTAACACGTGTGGGC | 0.14
GGTAGCACGTGTATGA | -0.02
TTTATCACGTGGACTA | 0.19
CTGGACACGTGGCTGG | -0.12
TTGAGCACGTGAAATT | 0.13
TGCTGCACGTGGTTGA | 0.07
CGGGACACGTGTAGTG | 0.08
GGGTCCACGTGCGAGG | -0.04
CGTCTCACGTGGTTGG | 0.2
AACAACACGTGTGGGT | 0.05

Sequence | relative binding free energy [kcal/mol]
GCATGCACGTGGCGGG | -0.05
GGCTACACGTGGGTAG | -0.06
TGATGCACGTGCGGTG | -0.03
GTTGGCACGTGAATTG | 0.14
GGCCTCACGTGGGTTT | 0.19
AATTACACGTGTAAGT | 0.07
TTGCGCACGTGTGTTC | -0.02
GGGTACACGTGGAGCA | 0.15
TTGGGCACGTGGGTCC | -0.24
GGGGGCACGTGGCACG | -0.22
GGTTTCACGTGTTTGG | 0.35
ACTGGCACGTGATTTT | 0
GGTTTCACGTGAAGTC | 0.29
GTATTCACGTGGGGGT | 0.12
TAGGTCACGTGCGGGT | 0.09
TATAGCACGTGAAAGG | 0.21
ATACGCACGTGGGGTT | -0.31
CGGTTCACGTGAGGGG | 0.46
CATTTCACGTGGTTAT | 0.22
GTGGACACGTGTGGGG | 0.11
GGTGACACGTGTGCTA | 0.06
GGTCGCACGTGTATCG | 0.07
GTAATCACGTGGGATT | 0.16

Sequence | relative binding free energy [kcal/mol]
GAGGACACGTGGGGGA | -0.14
ATGATCACGTGTATTG | 0.11
TGAGGCACGTGGAATA | -0.01
GATTTCACGTGTTGGA | 0.35
TAATTCACGTGAATTG | 0.34
TTATGCACGTGTGGTC | 0.01
TTGGACACGTGTTGTT | 0.19
GTGGGCACGTGGAGCA | 0.03
CTTAACACGTGTTATG | -0.06
ATTGCCACGTGGGGAA | -0.05
GGTTGCACGTGGAATC | 0.21
GTGTCCACGTGTTAGA | 0.07
TAAGTCACGTGGAGTG | 0.18
CATTTCACGTGTATTA | 0.23
AAAGGCACGTGTTGGA | -0.21
AGGTGCACGTGGAGTC | 0.07
TGTGACACGTGGTAGA | -0.15
TTTGGCACGTGGACTA | -0.09
GTGTTCACGTGTGAAC | 0.26
GATCACACGTGGGGGG | 0.06
GGTCGCACGTGGTAGT | -0.15
CTGGACACGTGTGTTA | 0.11
GTTTGCACGTGGTTAG | 0.06

Sequence | relative binding free energy [kcal/mol]
GGGTCCACGTGTGCAG | 0.04
GGTAACACGTGTGTTT | 0
CAGTGCACGTGGGTGC | -0.27
AGGATCACGTGATAGT | 0.11
TGGAGCACGTGGAAGA | -0.03
GGCGGCACGTGAATAG | 0.18
TATTTCACGTGTTTGG | 0.25
GTGGCCACGTGTGCTG | -0.09
GTGATCACGTGTAAGT | 0.28
ATAAGCACGTGGTGCA | 0.04
GGTTGCACGTGCTGTC | -0.03
GCTTTCACGTGCTGGG | 0.24
ATTACCACGTGTATGG | 0
GTTATCACGTGGGTTA | 0.01
ACGAGCACGTGTGTTG | -0.07
GTTATCACGTGTGCTA | 0.05
GTGCCCACGTGGTGGT | -0.18
TGTGTCACGTGCCCGG | 0.07
GTGGGCACGTGGCAAA | 0.02
TTTAGCACGTGGCGCT | -0.25
GGACTCACGTGTAGTT | 0.29
AGAGCCACGTGGGGTG | -0.4
TTGTTCACGTGTAAAT | 0.28
